# Laboratory results as given in PubChem BioAssay AID1030 (National Center for Advancing Translational Sciences (NCATS), 2008).
# Among all 220,000 compounds or so, about 16,000 (7.3%) were called active. Inconclusive results, whose numbers are uncertain, are shown with a selection of clear calls. The call rests on the fitted dose curve; in most records, active means well fitted inhibition curve with a large enough effect (not every such curve was filed as active); inconclusive means small, poorly fitted or top-dose-only effect, or another doubt; inactive means no such curve, though single readings can be large or run the other way. Potencies of inconclusive entries are left out as doubtful fits.
# Biological target: Aldehyde dehydrogenase 1A1 (Homo sapiens) (UniProt P00352)
# Experiment: qHTS Assay for Inhibitors of Aldehyde Dehydrogenase 1 (ALDH1A1);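 on activity, negative = inhibition: plate controls were no enzyme wells and a reference inhibitor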
# Conditions: Purified ALDH1A1, NADH fluorescence, propionaldehyde substrate; series mostly up to 75.3 µM; activity, negative = inhibition: at the top concentration
# Potency means the concentration at half of the fitted maximal effect; tags describe the fitted curve by direction and shape.
# UniProt P00352, sequence (P00352 whole entry, looked up): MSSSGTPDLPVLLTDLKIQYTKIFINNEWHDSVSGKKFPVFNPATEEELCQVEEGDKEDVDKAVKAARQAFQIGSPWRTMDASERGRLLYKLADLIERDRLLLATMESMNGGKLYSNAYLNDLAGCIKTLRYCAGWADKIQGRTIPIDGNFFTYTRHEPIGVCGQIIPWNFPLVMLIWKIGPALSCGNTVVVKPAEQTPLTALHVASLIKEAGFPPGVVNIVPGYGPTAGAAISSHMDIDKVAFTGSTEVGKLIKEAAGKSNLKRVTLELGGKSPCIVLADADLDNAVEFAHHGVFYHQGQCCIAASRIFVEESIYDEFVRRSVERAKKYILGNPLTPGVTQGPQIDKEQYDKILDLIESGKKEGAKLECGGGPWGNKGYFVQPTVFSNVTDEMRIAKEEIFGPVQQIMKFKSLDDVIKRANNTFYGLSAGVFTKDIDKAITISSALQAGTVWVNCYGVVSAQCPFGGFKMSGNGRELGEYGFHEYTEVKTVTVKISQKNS
Compound,Potency,"activity, negative = inhibition"
Cc1c(C)c2cc(Cl)c(O)c(CN(C)C)c2oc1=O,"inconclusive [inhibitor, partial curve]",–
CCOc1ccc2ccccc2c1/C=N/NC(=O)CNC(=O)C(c1ccccc1)c1ccccc1,"inconclusive [inhibitor, partial curve]",–
O=c1c(-c2ccc(Br)cc2)[n+]([O-])c2ccccc2n1OCc1ccccn1,–,inactive: 5.77%
NS(=O)(=O)c1ccc(NC(=S)NC(=O)c2ccc(Br)o2)cc1,"inconclusive [inhibitor, single point]",–
COc1ccc2oc(C(=O)NC(C)(C)C)c(C)c2c1,"inconclusive [inhibitor, partial curve]",–
CCCCC(Sc1nc(N)c(NC(=O)c2ccc(OC)cc2)c(=O)[nH]1)C(=O)O (stereo unspecified),–,inactive: 7.98%
CCN(CC)S(=O)(=O)c1ccc(-c2nnc(SCC(N)=O)n2CC)cc1,"inconclusive [inhibitor, partial curve, poor fit]",–
CC(Sc1ccsc1[N+](=O)[O-])C(=O)NCc1ccco1 (stereo unspecified),"inconclusive [inhibitor, single point]",–
O=C(c1nnsc1S(=O)(=O)c1ccc(Cl)cc1)N1CCOCC1,active: 2.82 µM,–
COc1ccc(CCNC(=O)COC(=O)c2cnc(C)cn2)cc1OC,active: 12.6 µM,–
CCOC(=O)CSc1nc(-c2ccccn2)ncc1OC,–,inactive: 5.49%
Cc1nn(-c2ccccc2)c2[nH]c(=O)c(CNCCN3CCOCC3)cc12,"inconclusive [inhibitor, single point]",–
FC(F)(F)c1ccc(C2[C@H]3CN(Cc4cccnc4)[C@H](c4ccccc4)C34CC2(c2cccnc2)C4)cc1 (stereo partly specified),–,inactive: -10.7%
Cn1c(=S)n(C)c2ccccc21,–,inactive: 8.17%
CCOCCCNC(=O)C(c1ccc(OC)cc1)N(Cc1ccc2c(c1)OCO2)C(=O)c1ccccn1 (stereo unspecified),–,inactive: -2.04%
O=C1CN(C(=O)c2ccc(Br)o2)C(c2ccc(F)cc2)c2cc(F)ccc2N1 (stereo unspecified),"inconclusive [inhibitor, single point]",–
O=C(c1cc(COc2ccc3ncccc3c2)on1)N1CCC(O)CC1,"inconclusive [inhibitor, partial curve, poor fit]",–
COc1ccc(-c2onc3ccc(Cl)cc23)cc1,active: 20 µM,–
Cc1noc(C)c1COC(=O)c1ccc(F)c(S(=O)(=O)N2CCCCC2)c1,"inconclusive [inhibitor, single point]",–
Cc1ccc(-c2cnc(NC(=O)CCC(=O)N3CCCCC3)n2C)cc1,–,inactive: -0.102%
O=C(CN1C(=O)CCC1=O)Nc1cccc2c1C(=O)NC2=O,"inconclusive [inhibitor, single point]",–
